Reference: PMC12345631
Numbering of substitutions follows the chain as printed. Read-outs that look alike come from different tables or passages of the source. Results are given in words; binding and its absence hold for the method and conditions named. Binding seen in cells or lysates may run through a third protein. Some binding calls cover weakened binding; strength is not graded here. Sequences can lack the tags named with a protein.

Protein sequences, listed by entry. Tags and fused reporters are not part of them.
UniProt P38873: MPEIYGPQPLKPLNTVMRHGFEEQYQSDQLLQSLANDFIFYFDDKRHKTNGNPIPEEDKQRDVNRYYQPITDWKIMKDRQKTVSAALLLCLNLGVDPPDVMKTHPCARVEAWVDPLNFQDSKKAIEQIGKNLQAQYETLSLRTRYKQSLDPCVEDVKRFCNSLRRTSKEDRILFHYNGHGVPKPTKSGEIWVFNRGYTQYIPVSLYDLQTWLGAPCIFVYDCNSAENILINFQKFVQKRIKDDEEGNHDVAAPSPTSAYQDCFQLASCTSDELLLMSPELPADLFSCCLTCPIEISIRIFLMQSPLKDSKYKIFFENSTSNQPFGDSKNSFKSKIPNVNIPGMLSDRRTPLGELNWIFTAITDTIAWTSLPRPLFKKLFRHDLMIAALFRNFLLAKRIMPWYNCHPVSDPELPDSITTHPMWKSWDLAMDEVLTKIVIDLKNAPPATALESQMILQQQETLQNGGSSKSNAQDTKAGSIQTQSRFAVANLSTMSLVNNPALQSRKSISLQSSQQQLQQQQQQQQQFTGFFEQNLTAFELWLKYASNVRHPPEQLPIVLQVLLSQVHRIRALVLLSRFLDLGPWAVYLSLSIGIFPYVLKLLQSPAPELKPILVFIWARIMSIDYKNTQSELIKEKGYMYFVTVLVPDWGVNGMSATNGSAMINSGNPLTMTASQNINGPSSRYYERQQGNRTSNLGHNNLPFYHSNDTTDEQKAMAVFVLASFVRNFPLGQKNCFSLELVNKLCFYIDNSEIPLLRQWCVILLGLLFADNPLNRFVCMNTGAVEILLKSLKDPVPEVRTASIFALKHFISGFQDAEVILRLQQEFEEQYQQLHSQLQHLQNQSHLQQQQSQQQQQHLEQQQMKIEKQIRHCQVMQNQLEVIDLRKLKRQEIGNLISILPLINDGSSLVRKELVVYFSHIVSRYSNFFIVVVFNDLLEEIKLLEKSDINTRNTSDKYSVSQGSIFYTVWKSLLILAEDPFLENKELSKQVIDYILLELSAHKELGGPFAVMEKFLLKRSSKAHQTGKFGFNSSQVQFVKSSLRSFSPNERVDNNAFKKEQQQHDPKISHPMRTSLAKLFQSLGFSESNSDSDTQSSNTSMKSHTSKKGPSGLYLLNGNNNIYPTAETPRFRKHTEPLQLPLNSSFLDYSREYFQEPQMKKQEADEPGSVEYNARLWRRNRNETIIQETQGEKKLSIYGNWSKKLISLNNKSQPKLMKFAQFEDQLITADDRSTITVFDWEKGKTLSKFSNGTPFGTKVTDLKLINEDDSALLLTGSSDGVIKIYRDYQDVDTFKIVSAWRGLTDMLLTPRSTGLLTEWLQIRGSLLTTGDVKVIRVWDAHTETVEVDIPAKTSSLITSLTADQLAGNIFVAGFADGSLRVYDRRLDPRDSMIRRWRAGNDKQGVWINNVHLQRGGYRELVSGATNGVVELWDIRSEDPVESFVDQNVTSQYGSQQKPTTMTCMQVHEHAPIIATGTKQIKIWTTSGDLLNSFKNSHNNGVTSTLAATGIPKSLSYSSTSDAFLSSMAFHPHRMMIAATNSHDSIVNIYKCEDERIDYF

Key:
Test in all cases: co-IP; anti-Flag (M2) on Dynabeads Protein G, 1–2 h at 4°C; lysis in 50 mM HEPES pH 7.5, 150 mM NaCl, 1 mM EDTA, NP-40; washes with 0.2% NP-40; blot for HA; cells in YPD, YPL, SD or SL medium; wild-type or mkt1∆ background; CEN.PK and S288C
[1] = molecular target: T1, Pbp1-Flag (S. cerevisiae) (UniProt P53297)
T1 sequence: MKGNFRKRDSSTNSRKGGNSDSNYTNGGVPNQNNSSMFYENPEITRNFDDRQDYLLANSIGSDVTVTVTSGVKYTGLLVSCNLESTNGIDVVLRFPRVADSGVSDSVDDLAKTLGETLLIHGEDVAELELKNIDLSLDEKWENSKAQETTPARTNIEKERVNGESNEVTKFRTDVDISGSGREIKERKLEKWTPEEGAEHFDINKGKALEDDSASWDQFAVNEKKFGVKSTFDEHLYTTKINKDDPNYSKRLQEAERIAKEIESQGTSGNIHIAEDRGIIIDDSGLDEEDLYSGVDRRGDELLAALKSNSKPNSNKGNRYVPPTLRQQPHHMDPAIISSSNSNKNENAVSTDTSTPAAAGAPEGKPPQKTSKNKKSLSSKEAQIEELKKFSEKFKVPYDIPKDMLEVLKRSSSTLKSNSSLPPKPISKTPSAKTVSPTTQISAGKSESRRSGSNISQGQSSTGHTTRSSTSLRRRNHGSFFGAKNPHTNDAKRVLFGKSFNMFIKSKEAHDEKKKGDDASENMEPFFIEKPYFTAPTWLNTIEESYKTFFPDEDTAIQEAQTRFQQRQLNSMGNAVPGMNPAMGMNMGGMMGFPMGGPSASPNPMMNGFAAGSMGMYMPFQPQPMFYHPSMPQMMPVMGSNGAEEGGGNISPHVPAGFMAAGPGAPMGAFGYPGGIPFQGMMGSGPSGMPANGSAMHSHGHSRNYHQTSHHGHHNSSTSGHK

[2] = molecular target: T2, Mkt1-D30/R453 (Flag-tagged) (S. cerevisiae) (UniProt P40850)
T2 sequence: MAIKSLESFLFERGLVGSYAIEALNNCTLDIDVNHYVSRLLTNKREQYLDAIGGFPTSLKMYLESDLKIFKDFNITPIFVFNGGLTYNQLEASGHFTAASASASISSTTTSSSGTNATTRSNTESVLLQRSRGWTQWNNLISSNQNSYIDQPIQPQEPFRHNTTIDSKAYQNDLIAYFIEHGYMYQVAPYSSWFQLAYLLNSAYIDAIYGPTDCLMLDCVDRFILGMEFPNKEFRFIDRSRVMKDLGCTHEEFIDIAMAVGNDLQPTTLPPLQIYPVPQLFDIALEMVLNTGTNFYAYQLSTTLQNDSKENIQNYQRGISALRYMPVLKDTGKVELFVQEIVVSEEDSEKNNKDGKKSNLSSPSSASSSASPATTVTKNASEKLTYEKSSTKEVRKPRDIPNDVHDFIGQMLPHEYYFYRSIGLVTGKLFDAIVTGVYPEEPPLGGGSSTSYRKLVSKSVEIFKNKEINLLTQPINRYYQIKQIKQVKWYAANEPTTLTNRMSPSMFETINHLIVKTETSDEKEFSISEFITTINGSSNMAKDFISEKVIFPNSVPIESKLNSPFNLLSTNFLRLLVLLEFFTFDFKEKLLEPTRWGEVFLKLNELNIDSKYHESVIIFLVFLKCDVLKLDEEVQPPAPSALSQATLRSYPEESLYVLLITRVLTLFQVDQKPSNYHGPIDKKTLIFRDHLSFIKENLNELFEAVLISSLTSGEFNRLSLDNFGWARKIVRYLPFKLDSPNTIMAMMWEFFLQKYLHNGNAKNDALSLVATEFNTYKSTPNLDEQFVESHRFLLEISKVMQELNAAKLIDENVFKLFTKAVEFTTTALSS

[3] = molecular target: T3, Mkt1-D30/K453 (Flag-tagged) (S. cerevisiae) (UniProt P40850)
T3 sequence: T2 sequence with R453K

[4] = molecular target: T1, Pbp1-Flag (S. cerevisiae); remark: listed apart in the source

Kog1-HA (from UniProt P38873 1-1557)
binding [1]: binds

B1: Pbp1-HA (protein, UniProt P53297 1-722)
chain: T1 sequence
binding [2]: binds weakly
binding [3]: binds weakly

B2: Puf3-HA (protein, UniProt Q07807 1-879)
chain: MEMNMDMDMDMELASIVSSLSALSHSNNNGGQAAAAGIVNGGAAGSQQIGGFRRSSFTTANEVDSEILLLHGSSESSPIFKKTALSVGTAPPFSTNSKKFFGNGGNYYQYRSTDTASLSSASYNNYHTHHTAANLGKNNKVNHLLGQYSASIAGPVYYNGNDNNNSGGEGFFEKFGKSLIDGTRELESQDRPDAVNTQSQFISKSVSNASLDTQNTFEQNVESDKNFNKLNRNTTNSGSLYHSSSNSGSSASLESENAHYPKRNIWNVANTPVFRPSNNPAAVGATNVALPNQQDGPANNNFPPYMNGFPPNQFHQGPHYQNFPNYLIGSPSNFISQMISVQIPANEDTEDSNGKKKKKANRPSSVSSPSSPPNNSPFPFAYPNPMMFMPPPPLSAPQQQQQQQQQQQQEDQQQQQQQENPYIYYPTPNPIPVKMPKDEKTFKKRNNKNHPANNSNNANKQANPYLENSIPTKNTSKKNASSKSNESTANNHKSHSHSHPHSQSLQQQQQTYHRSPLLEQLRNSSSDKNSNSNMSLKDIFGHSLEFCKDQHGSRFIQRELATSPASEKEVIFNEIRDDAIELSNDVFGNYVIQKFFEFGSKIQKNTLVDQFKGNMKQLSLQMYACRVIQKALEYIDSNQRIELVLELSDSVLQMIKDQNGNHVIQKAIETIPIEKLPFILSSLTGHIYHLSTHSYGCRVIQRLLEFGSSEDQESILNELKDFIPYLIQDQYGNYVIQYVLQQDQFTNKEMVDIKQEIIETVANNVVEYSKHKFASNVVEKSILYGSKNQKDLIISKILPRDKNHALNLEDDSPMILMIKDQFANYVIQKLVNVSEGEGKKLIVIAIRAYLDKLNKSNSLGNRHLASVEKLAALVENAEV
binding [4]: binds
